Out of some 420,000 compounds screened, about 64,000 (15%) were called active. The inconclusive results got no clear call from the source; some entries with a clear call stand among them for comparison. Calls come from the whole dose curve; as a rule, active = well fitted inhibition curve with a large enough effect; inconclusive = small, poorly fitted or top-dose-only effect; inactive = flat fitted curve, though single readings scatter. No potency is given beside an inconclusive call; the fits are too rough.
Assay: qHTS for Inhibitors of human tyrosyl-DNA phosphodiesterase 1 (TDP1): qHTS in cells in absence of CPT; note: nearly all actives have a fitted effect of over 55% in size
Conditions: DT40 Tdp1-/- hTDP1 cells, no CPT, ATP luminescence, 48 h; activity change, negative = growth inhibition: at 46.2 µM (top of the series) unless noted
Method in brief: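 Chicken DT40 Tdp1-/- cells complemented with human TDP1, screened without camptothecin (DMSO vehicle only), 400 cells/well. Compounds pin-transferred, cells incubated at 37 °C for at least 48 hr. Growth read as ATP-dependent luminescence (CellTiter-Glo, 30 min at RT).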
In the case of `O=C(CCNc1ccc(Cl)c(C(F)(F)F)c1)c1ccco1`, the Potency is reported as active: 9.2 µM. In the case of `CCOC(=O)C1=CC[C@@H](c2ccccc2)N(S(=O)(=O)c2ccc(C)cc2)[C@H]1C`, the Potency is reported as active: 23.1 µM. In the case of `C=CCNc1cnn(-c2ccc(C)cc2)c(=O)c1Sc1ccc(C)cc1`, the Potency is reported as inconclusive [inhibitor, single point]. In the case of `Cc1ccc(CS(=O)(=O)Cc2ccc(C(=O)NCCc3ccc(Cl)cc3)o2)cc1`, the Potency is reported as “inactive”. With `Cn1c(CCN2CCCCC2)nc2cc(NC(=O)COc3ccc([N+](=O)[O-])cc3)ccc21` the Potency was active: 18.4 µM. With `O=[N+]([O-])c1cccc(CN2[C@@H](Cc3ccccc3)COCCS2(=O)=O)c1` the activity change, negative = growth inhibition was inconclusive: -35.4% [inhibitor]. For `Cc1ccc(NC(=S)N(CCN2CCOCC2)Cc2ccccc2F)cc1Cl`, the activity change, negative = growth inhibition was inconclusive: -36.8% [inhibitor]. In the case of `COc1cc(OC)cc(C(=O)Nc2ccc3nc(N4CCC(C)CC4)cc(C)c3c2)c1`, the Potency is reported as active: 4.61 µM. With `COc1c2ccccc2nn1C(C)C` the Potency was “inactive”. With `Cc1sc(NC(=O)c2ccco2)c(C(c2ccc(F)cc2)N2CCN(C)CC2)c1C` (stereo not drawn) the Potency was inconclusive [inhibitor, single point]. With `COCCNC(=O)C[C@H]1C[C@H]2c3cc(NS(=O)(=O)c4ccc(F)cc4)ccc3O[C@H]2[C@H](CO)O1` the Potency was inconclusive [inhibitor, single point]. For `CCc1nn(CCCC(=O)NC2CCCCC2C)c(=O)c2cc3occc3n12` (stereo not drawn), the Potency was active: 25.9 µM. For `CCCCOc1cccc(C(=O)Nc2cccc3ccc(C)nc23)c1`, the Potency was active: 23.1 µM. In the case of `Cn1c(=O)n(C)c2cc(N3CCOCC3)c(NC(=O)c3ccc(F)cc3)cc21`, the Potency is reported as “inactive”. With `O=C(NCc1ccccc1)N1CCNCC1` the Potency was “inactive”. For `O=C(N/N=C/c1sc(=O)[nH]c1-[n+]1ccc2ccccc2c1)c1ccccc1[O-]`, the Potency was “inactive”. For `O=C(Nc1ccccc1)c1ccc2c(c1)CCN2S(=O)(=O)c1ccccc1`, the Potency was inconclusive [inhibitor, partial curve]. For `Cc1cc(=O)[nH]c(-n2nc(C)cc2C)n1`, the Potency was active: 23.1 µM. For `CCc1cccc(CC)c1NC(=O)CO/N=C(\C)c1cccs1`, the Potency was inconclusive [inhibitor, single point]. With `CC[C@@H](NCCCn1ccc(NC(=O)OCc2ccccc2)nc1=O)c1ccccc1` the Potency was active: 16.4 µM. For `Cc1ccccc1OCC(=O)NNC(=O)Cn1[nH]c(=O)c2ccccc2c1=O`, the Potency was inconclusive [inhibitor, partial curve]. In the case of `CCOC(=O)c1[nH]c2ccc(OC)cc2c1NC(=O)c1ccc2c(c1)OCO2`, the Potency is reported as inconclusive [inhibitor, single point]. For `CCOC(=O)N1CCC(NS(=O)(=O)c2ccc3c(c2)C(C)(C)C(=O)N3C)CC1`, the Potency was “inactive”. In the case of `CCOC(=O)COc1cc(OCC(=O)OCC)c2c(=O)cc(-c3ccccc3)oc2c1`, the Potency is reported as “inactive”. For `COc1ccc(NC2CCCN(C(=O)C3(C)CCCCC3)C2)cc1OC` (stereo not drawn), the Potency was inconclusive [inhibitor, partial curve]. In the case of `NC(N)=NCC(O)CN(c1ccccc1)c1ccccc1` (stereo not drawn), the Potency is reported as active: 14.6 µM. For `Cc1noc(C)c1S(=O)(=O)N1CCC(C(=O)N2CCN(c3ccccc3Cl)CC2)CC1`, the Potency was active: 20.6 µM. For `CCC(=O)Oc1ccc(C2N(C(=O)CC)CCN2S(=O)(=O)c2ccc(C)cc2)cc1OC` (stereo not drawn), the Potency was “inactive”. With `O=C(CCn1c(=O)c2ccccc2n(Cc2cccc([N+](=O)[O-])c2)c1=O)N1CCc2ccccc2C1` the Potency was inconclusive [inhibitor, single point]. In the case of `CC1CN(CC(O)COc2ccc(C(C)C)cc2)CC(C)O1` (stereo not drawn), the Potency is reported as inconclusive [inhibitor, single point]. For `CC(=O)Nc1ccc(S(=O)(=O)N2CCN(Cc3csc(C)n3)CC2)cc1`, the Potency was “inactive”. With `S=C(NCCc1ccccc1)N1CCN(Cc2ccccc2)CC1` the Potency was inconclusive [inhibitor, single point]. In the case of `Cc1ccc(CS(=O)Cc2ccc(C(=O)N3CCN(c4ccccn4)CC3)o2)cc1` (stereo not drawn), the Potency is reported as inconclusive [inhibitor, single point]. In the case of `CCC12CN3CC(CC)(CN(C1)C3c1ccc(OCc3ccccc3)cc1)C2=O` (stereo not drawn), the Potency is reported as inconclusive [inhibitor, full curve]. In the case of `CC(C)CCNC(=O)C1CC(=O)N(CCc2ccccc2)C1` (stereo not drawn), the Potency is reported as “inactive”. In the case of `CN(C)S(=O)(=O)c1cccc(NC(=O)CCc2c[nH]c3ccccc23)c1`, the Potency is reported as inconclusive [inhibitor, single point]. In the case of `Cc1ccc2c(CC(=O)Nc3cc(C(F)(F)F)ccc3Cl)coc2c1C`, the Potency is reported as “inactive”. For `COc1ccccc1OCC(=O)NNC(=O)c1ccoc1C`, the Potency was inconclusive [inhibitor, single point]. With `COc1cc(NC(=O)CCCc2c[nH]c3ccccc23)cc(OC)c1` the Potency was inconclusive [inhibitor, single point]. With `CCN(c1ccccc1)c1nc(N)nc(C#N)n1` the Potency was inconclusive [inhibitor, single point]. With `Cc1cc(C)c2c(=O)cc(C(=O)Nc3ccccc3Cl)oc2c1` the Potency was inconclusive [inhibitor, partial curve, poor fit]. With `COc1ccccc1CNc1ncnc2ccc(-c3cccc(C#N)c3)cc12` the Potency was inconclusive [inhibitor, single point]. For `COc1cc2c(cc1[N+](=O)[O-])n(C(C)C)c(=O)n2C(C)C`, the Potency was inconclusive [inhibitor, full curve, poor fit]. In the case of `O=S(=O)(c1cccs1)N1CCC(Cc2ccccc2)CC1`, the Potency is reported as inconclusive [inhibitor, single point]. With `Cc1nn(-c2ccccc2)c(C)c1CN(C)C(=O)c1ccc(S(=O)(=O)NCc2ccco2)cc1` the Potency was inconclusive [inhibitor, single point]. With `COc1ccc(-c2nnc(-c3ccccc3O)o2)cc1` the Potency was active: 10.3 µM. With `CCOC(=O)c1c(C)[nH]c(C)c1S(=O)(=O)N1CCC(C(=O)Nc2ccccn2)CC1` the Potency was “inactive”. In the case of `COc1ccc2c(c1OC)C(=O)OC2Nc1nc(-c2cc3ccccc3oc2=O)cs1` (stereo not drawn), the Potency is reported as inconclusive [inhibitor, single point]. With `S=C(NCCN(C1CCCCC1)C1CCCC1)Nc1cccc(Cl)c1` the Potency was active: 16.4 µM. In the case of `N#Cc1cc2c(nc1SCc1ccccc1)CCCCC2`, the Potency is reported as active: 20.6 µM. With `Cc1ccc2oc(=O)n(CCNC(=O)Nc3ccccc3Cl)c2c1` the Potency was inconclusive [inhibitor, partial curve, poor fit]. With `CCn1c(SC)nnc1-c1nnc(SC)n1CC` the Potency was “inactive”. With `Cc1ccc(CN2CCSCC2)cc1` the Potency was “inactive”. With `COc1ccc(-c2cnc(N)nc2-c2ccc(OC)cc2O)cc1` the Potency was inconclusive [inhibitor, single point]. With `COc1ccc(CCNC(=O)C2CC3Cn4c(nc5ccccc54)C3N2C)cc1` (stereo not drawn) the Potency was “inactive”. With `Cc1ccc(-c2nc(CS(=O)CC(=O)NCCN3CCCCC3C)c(C)o2)cc1` (stereo not drawn) the Potency was inconclusive [inhibitor, partial curve, poor fit]. For `COc1ccc(OC)c(S(=O)(=O)Oc2ccc(N)c3ccccc23)c1`, the Potency was active: 23.1 µM. In the case of `COc1ccc(NC(=O)c2ccc(NC(=O)COC(=O)c3cnc(C)cn3)cc2)cc1`, the Potency is reported as “inactive”. For `CN(C)CCCNc1ncnc2oc(-c3ccccc3)c(-c3ccccc3)c12`, the Potency was inconclusive [inhibitor, single point]. For `COc1ccc(NC(=O)c2cnc(SC)n2-c2ccc(F)cc2)c(OC)c1`, the Potency was inconclusive [inhibitor, single point]. With `Brc1csc(/C=N/Nc2nc3ccccc3s2)c1` the Potency was inconclusive [inhibitor, single point]. With `CCCCn1c(SCC(=O)Nc2nnc(CC)s2)nc2c1c(=O)n(C)c(=O)n2C` the Potency was active: 11.6 µM. For `CN(C)S(=O)(=O)c1cccc(-c2nnc3n2CCCCC3)c1`, the Potency was “inactive”. In the case of `CCOC(=O)CCCCCC(=O)Nc1ccc2c(c1)CC(=O)N([C@@H](C)CO)C[C@@H](C)[C@@H](CN(C)C(=O)Nc1ccc(C(F)(F)F)cc1)O2`, the Potency is reported as inconclusive [inhibitor, single point]. With `CCc1ccc(-c2nc3c(c(SCc4ccc(F)cc4)n2)Cc2c(CO)cnc(C)c2O3)cc1` the Potency was “inactive”. With `O=C1c2ccccc2CN1C(CO)Cc1ccccc1` (stereo not drawn) the Potency was “inactive”. With `COc1cc(NC(=O)c2cccs2)ccc1NC(=O)c1ccco1` the Potency was inconclusive [inhibitor, single point]. For `COc1ccc(Br)cc1CN1CCN(C(=O)c2cccc(OC)c2OC)CC1`, the Potency was inconclusive [inhibitor, single point]. With `CCCCc1cc(=O)oc2cc(C)cc(OCC(=O)N3CCC(C(=O)O)(c4ccccc4)CC3)c12` the Potency was “inactive”. With `CCCNC(=O)C1(C)CCN(Cc2cc3ccccc3o2)C1` (stereo not drawn) the Potency was inconclusive [inhibitor, partial curve]. In the case of `O=Cc1c(Sc2ccccn2)nc2ccccn2c1=O`, the Potency is reported as inconclusive [inhibitor, single point]. For `Cc1cc(=O)oc2c(C)c(OC(C)C(=O)NC3CCN(Cc4ccccc4)CC3)ccc12` (stereo not drawn), the Potency was inconclusive [inhibitor, single point]. With `CC1=NN(C(=O)c2ccc(Cn3nc(C)c([N+](=O)[O-])c3C)o2)C(O)(C(F)(F)F)C1` (stereo not drawn) the Potency was inconclusive [inhibitor, partial curve].

Reference: PubChem BioAssay AID686978 (National Center for Advancing Translational Sciences (NCATS), 2013)
% is set by controls: 0 for no effect and ±100 for the full control effect; potency is the fitted concentration of half-maximal effect; tags give direction and shape of the fitted curve.
